From the supplement of paper PMC9446081 come the findings set out here.

The campaign covered roughly 39,000 compounds. About 220 (0.56%) showed activity. This is one part of the list.
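Further: static incubation at 37 °C against the wild-type strain, values averaged over two biological replicates.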

For this assay, the system named is Escherichia coli K-12 BW25113. Briefly: relative growth (OD600 normalised to plate interquartile mean) (fraction); higher = less growth inhibition, active = 0.2 or less. Conditions: 50 µM; LB; incubation time: overnight (16-24 h).
As to `C[C@H]1CN([C@@H](C)CO)C(=O)Cc2cc(NC(=O)Nc3ccc(F)cc3)ccc2O[C@H]1CN(C)S(=O)(=O)c1ccc(Oc2ccccc2)cc1`, the relative growth is inactive: 1.04.

Turning to `Cc1ccc(S(=O)(=O)Nc2ccc3c(c2)C(=O)N([C@@H](C)CO)C[C@H](C)[C@@H](CN(C)C(=O)Nc2ccc(F)cc2)OCCCC[C@H](C)O3)cc1`, the relative growth is inactive: 1.04.

With `COc1ccc(S(=O)(=O)Nc2ccc3c(c2)C(=O)N([C@@H](C)CO)C[C@@H](C)[C@@H](CN(C)S(=O)(=O)c2cn(C)cn2)O3)cc1`, the relative growth was inactive: 0.994.

For `Cc1noc(C)c1S(=O)(=O)Nc1cccc2c1O[C@@H](CN(C)Cc1ccc(C(=O)O)cc1)[C@@H](C)CN([C@H](C)CO)C2=O`, the relative growth was inactive: 0.988.

As to `Cn1cnc(S(=O)(=O)N[C@@H]2C=C[C@@H](CC(=O)N3CCN(c4ccccc4)CC3)O[C@@H]2CO)c1`, the relative growth was inactive: 0.998.

On to `Cc1noc(C)c1S(=O)(=O)N(C)C[C@H]1Oc2ccc(NC(=O)Nc3ccc4c(c3)OCO4)cc2C(=O)N([C@@H](C)CO)C[C@H]1C`, for which the relative growth was inactive: 1.01.

On to `C[C@H](CO)N1C[C@H](C)[C@H](CN(C)Cc2ccc(C(=O)O)cc2)OCCCC[C@H](C)Oc2ccc(NS(=O)(=O)c3ccc(Cl)cc3)cc2C1=O`, for which the relative growth is inactive: 1.02.

For the compound `C[C@H]1CN([C@@H](C)CO)C(=O)Cc2cc(NC(=O)C3CCCCC3)ccc2O[C@H]1CN(C)S(C)(=O)=O`, the relative growth is inactive: 1.03.

For the compound `C[C@@H]1CN([C@H](C)CO)C(=O)Cc2cc(NC(=O)Cn3cnnn3)ccc2O[C@H]1CN(C)S(=O)(=O)c1ccc(Cl)cc1`, the relative growth is inactive: 0.998.

`COCCOC(=O)N1C(=O)[C@@]2(c3cc(C#CC4=CCCCC4)ccc31)[C@H](C(=O)N1CCN(c3ncccn3)CC1)[C@H]1C(=O)O[C@H](c3ccccc3)[C@H](c3ccccc3)N1[C@@H]2c1ccc(OCCO)cc1`: the relative growth was inactive: 1.08.

In the case of `C/C(Cc1ncn(-c2cc(C)on2)n1)=N\O`, the relative growth was inactive: 1.02.

For `O=C(C[C@@H]1CC[C@@H](NS(=O)(=O)c2ccc(F)cc2)[C@@H](CO)O1)NCc1ccc(Cl)c(Cl)c1`, the relative growth is inactive: 0.958.

In the case of `COc1ccccc1S(=O)(=O)N[C@@H]1CC[C@@H](CCNC(=O)C2CC2)O[C@H]1CO`, the relative growth was inactive: 1.02.

On to `O=C(N/N=C/[C@H](O)[C@@H](O)[C@H](O)[C@H](O)CO[C@H]1O[C@H](CO)[C@H](O)[C@H](O)[C@H]1O)c1ccccn1`, for which the relative growth is inactive: 1.01.

`C[C@@H]1CCCCO[C@@H](CN(C)C(=O)NC2CCCCC2)[C@H](C)CN([C@@H](C)CO)C(=O)c2cc(NC(=O)c3ccccc3)ccc2O1`: the relative growth is inactive: 1.01.

Consider `COCCOC(=O)N1C(=O)[C@@]2(c3cc(C#Cc4ccc(OC)cc4)ccc31)[C@H](C(=O)N1CCN(c3ncccn3)CC1)[C@H]1C(=O)O[C@H](c3ccccc3)[C@H](c3ccccc3)N1[C@@H]2c1ccc(OCCO)cc1`, for which the relative growth is inactive: 1.08.

For the compound `COc1ccc(CN(C)C[C@@H]2OCCCC[C@@H](C)Oc3ccc(NC(=O)c4ccncc4)cc3C(=O)N([C@@H](C)CO)C[C@H]2C)cc1`, the relative growth is inactive: 0.917.

In the case of `C[C@H](CO)N1C[C@H](C)[C@H](CN(C)Cc2ccncc2)Oc2c(NS(=O)(=O)c3ccc(F)cc3)cccc2C1=O`, the relative growth is inactive: 1.03.

Consider `COc1ccc(CN(C)C[C@H]2OCCCC[C@H](C)Oc3ccc(NC(=O)C4CCCCC4)cc3C(=O)N([C@@H](C)CO)C[C@@H]2C)cc1`, for which the relative growth was inactive: 0.972.

On to `COc1ccc(NC(=O)Nc2ccc3c(c2)C(=O)N([C@@H](C)CO)C[C@@H](C)[C@@H](CN(C)S(=O)(=O)c2cn(C)cn2)O3)cc1`, for which the relative growth was inactive: 1.02.

With `COc1ccc(CNC(=O)C[C@@H]2CC[C@H]3[C@@H](COC[C@H](O)CN3S(=O)(=O)c3ccc(C)cc3)O2)cc1OC`, the relative growth is inactive: 0.972.

`CC(C)(C)NCc1ccccc1F`: the relative growth was inactive: 1.03.

For `C[C@@H]1CN([C@@H](C)CO)C(=O)c2cccc(NC(=O)C3CCOCC3)c2O[C@H]1CN(C)C(=O)NC1CCCCC1`, the relative growth was inactive: 0.928.

Take `Cc1noc(C)c1S(=O)(=O)Nc1ccc2c(c1)CC(=O)N([C@@H](C)CO)C[C@@H](C)[C@H](CN(C)C(=O)NC1CCCCC1)O2`: the relative growth was inactive: 0.962.

Regarding `C[C@H](CO)N1C[C@H](C)[C@H](CN(C)Cc2ccncc2)Oc2ccc(NS(=O)(=O)c3cn(C)cn3)cc2CC1=O`, the relative growth is inactive: 0.998.

For `COC(=O)c1ccc(O)cc1`, the relative growth was inactive: 1.01.

On to `C[C@@H]1CN([C@@H](C)CO)S(=O)(=O)c2ccc(C#CC(C)(C)O)cc2O[C@@H]1CN(C)Cc1ccncc1`, for which the relative growth was inactive: 0.986.

With `CC(C)NC(=O)N(C)C[C@@H]1Oc2ccc(NC(=O)CCC(F)(F)F)cc2CC(=O)N([C@@H](C)CO)C[C@@H]1C`, the relative growth was inactive: 0.984.

For the compound `C[C@@H](O)CC(C)(C)O`, the relative growth was inactive: 0.997.

Regarding `C/C=C(/C)C(=O)O[C@@H]1[C@H](OC(C)=O)[C@]2(CO)[C@H](O)C[C@]3(C)C(=CC[C@H]4[C@@]5(C)CC[C@H](O[C@@H]6O[C@H](C(=O)O)[C@@H](O[C@@H]7O[C@H](CO)[C@@H](O)[C@H](O)[C@H]7O)[C@H](O)[C@H]6O[C@@H]6O[C@H](CO)[C@@H](O)[C@H](O)[C@H]6O)[C@](C)(CO)[C@@H]5CC[C@]43C)[C@@H]2CC1(C)C`, the relative growth is inactive: 0.992.

Regarding `Cc1ccc(S(=O)(=O)c2c[nH]c(=O)[nH]2)cc1`, the relative growth was inactive: 1.

Turning to `C[C@@H]1CN([C@@H](C)CO)C(=O)c2cc(NC(=O)CCCN(C)C)ccc2O[C@H]1CN(C)Cc1ccc(Oc2ccccc2)cc1`, the relative growth is inactive: 0.995.

Consider `Cc1cc(C(=O)Nc2cccc3c2O[C@H](CN(C)S(=O)(=O)c2ccc(F)cc2)[C@@H](C)CN([C@@H](C)CO)C3=O)n(C)n1`, for which the relative growth is inactive: 1.02.

For the compound `COc1ccc(S(=O)(=O)Nc2ccc3c(c2)CC(=O)N([C@@H](C)CO)C[C@@H](C)[C@@H](CN(C)C(=O)NC(C)C)O3)cc1`, the relative growth was inactive: 0.997.

As to `O=C(C[C@H]1C=C[C@H](NC(=O)CN2CCOCC2)[C@@H](CO)O1)NCCc1ccncc1`, the relative growth was inactive: 1.01.

Regarding `COc1ccc(CN(C)C[C@@H]2OCCCC[C@@H](C)Oc3ccc(NC(=O)Nc4ccc(OC)cc4)cc3C(=O)N([C@@H](C)CO)C[C@@H]2C)cc1`, the relative growth was inactive: 0.93.

On to `O=C(C=Cc1ccccc1)c1ccc(O)cc1`, for which the relative growth is inactive: 0.823.

In the case of `Cc1ccc(S(=O)(=O)N(C)C[C@H]2Oc3ccc(NC(=O)C4CC4)cc3CC(=O)N([C@H](C)CO)C[C@H]2C)cc1`, the relative growth is inactive: 0.991.

`C[C@@H]1CCCCO[C@H](CN(C)Cc2ccc(C(F)(F)F)cc2)[C@@H](C)CN([C@@H](C)CO)C(=O)c2cc(NC(=O)Cc3ccccc3)ccc2O1`: the relative growth is inactive: 0.988.

Turning to `O=C(C[C@@H]1C[C@H]2c3cc(NC(=O)c4ccc5c(c4)OCO5)ccc3O[C@H]2[C@H](CO)O1)NCc1ccccn1`, the relative growth is inactive: 0.999.

As to `COc1ccccc1S(=O)(=O)N(C)C[C@H]1OCc2cnnn2CCCC(=O)N([C@H](C)CO)C[C@@H]1C`, the relative growth is inactive: 1.

Regarding `CN(CC(=O)O)[C@H]1CCS(=O)(=O)C1`, the relative growth is inactive: 1.

For the compound `Nc1c[nH]ccc1=O`, the relative growth is inactive: 0.983.

For `C[C@@H]1CCCCO[C@@H](CN(C)Cc2ccccc2)[C@@H](C)CN([C@H](C)CO)C(=O)c2cc(NC(=O)c3ccccc3)ccc2O1`, the relative growth was inactive: 0.972.

As to `COc1ccc(S(=O)(=O)N(C)C[C@@H]2OCCCC[C@@H](C)Oc3ccc(NC(=O)Nc4ccc(F)cc4)cc3C(=O)N([C@@H](C)CO)C[C@H]2C)cc1`, the relative growth is inactive: 1.02.

Take `COc1ccc(CN(C)C[C@H]2Oc3ccc(NC(=O)Nc4ccc(C(F)(F)F)cc4)cc3C(=O)N([C@@H](C)CO)C[C@@H]2C)cc1`: the relative growth was inactive: 0.942.

For the compound `C[C@@H]1CN([C@H](C)CO)C(=O)c2cccc(NS(=O)(=O)c3cn(C)cn3)c2O[C@@H]1CN(C)S(C)(=O)=O`, the relative growth is inactive: 0.985.

`CN1C(=S)N[C@@H]2CS(=O)(=O)C[C@@H]21`: the relative growth was inactive: 1.04.

With `C[C@H](CO)N1C[C@H](C)[C@H](CN(C)C(=O)C2CCCCC2)OCCCC[C@H](C)Oc2ccc(NC(=O)Nc3ccc(C(F)(F)F)cc3)cc2C1=O`, the relative growth was inactive: 1.02.

For `CNC(=O)N1CCN(Cc2cnn(C)c2)C[C@]2(CCCC(=O)N2)C1`, the relative growth was inactive: 0.985.

On to `CCn1ncc(NC(=O)Cn2ccc(C(=O)OC)n2)n1`, for which the relative growth was inactive: 1.04.

Regarding `CNC(=O)C[C@H]1CC[C@H]2[C@@H](COC[C@@H](O)CN2C(=O)c2ccc3c(c2)OCO3)O1`, the relative growth was inactive: 1.02.

For `Cc1noc(C)c1S(=O)(=O)Nc1ccc2c(c1)CC(=O)N([C@H](C)CO)C[C@@H](C)[C@H](CN(C)Cc1ccc(C(=O)O)cc1)O2`, the relative growth is inactive: 1.05.

Turning to `CC(C)NC(=O)Nc1ccc2c(c1)CC(=O)N([C@H](C)CO)C[C@H](C)[C@H](CN(C)S(=O)(=O)c1ccc(F)cc1)O2`, the relative growth is inactive: 1.02.

Take `COc1cccc(C(=O)Nc2ccc3c(c2)C(=O)N(C)[C@H]2CC[C@H](CC(=O)Nc4ccc5c(c4)CCCC5)O[C@@H]2CO3)c1`: the relative growth is inactive: 0.998.

Regarding `C[C@@H]1CN([C@@H](C)CO)C(=O)c2cc(NS(=O)(=O)c3cn(C)cn3)ccc2O[C@@H](C)CCCCO[C@H]1CN(C)S(=O)(=O)c1ccc(F)cc1`, the relative growth was inactive: 1.02.

For the compound `CCN(CC)CCNC(=O)COc1ccc(OC)cc1.Cl`, the relative growth was inactive: 0.98.

`CC(=O)c1ccc(O)c(C(N)=O)c1`: the relative growth was inactive: 0.976.

Regarding `C[C@@H]1CCCCO[C@@H](CN(C)Cc2ccncc2)[C@H](C)CN([C@H](C)CO)C(=O)c2cc(NS(C)(=O)=O)ccc2O1`, the relative growth is inactive: 1.

In the case of `C[C@H]1CN([C@@H](C)CO)C(=O)Cc2cc(NC(=O)C3CC3)ccc2O[C@@H]1CN(C)C(=O)Nc1ccccc1`, the relative growth was inactive: 0.988.
